Measurements: patent US20240360189A1 (LUXEMBOURG INSTITUTE OF HEALTH LIH, published 2024)

T1: CD20 on Daudi lymphoma cells (UniProt P11836 1-297, limits assumed)
T1 construct: whole, on cells; also called CD20 antigen; CD20-positive DAUDI cells
T1 sequence (looked up): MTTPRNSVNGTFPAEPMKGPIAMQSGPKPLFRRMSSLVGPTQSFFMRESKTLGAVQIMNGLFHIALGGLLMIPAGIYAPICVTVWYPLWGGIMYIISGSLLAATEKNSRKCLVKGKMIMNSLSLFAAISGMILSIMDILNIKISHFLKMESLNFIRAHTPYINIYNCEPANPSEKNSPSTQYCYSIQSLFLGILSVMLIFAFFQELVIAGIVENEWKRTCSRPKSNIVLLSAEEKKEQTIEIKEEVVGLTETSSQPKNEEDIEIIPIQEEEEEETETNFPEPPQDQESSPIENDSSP


Legend:
[1] = molecular target: T1, CD20 on Daudi lymphoma cells; experiment: flow cytometry on mixed CFSE-Daudi and PKH26-BT474 cells, anti-human IgG/AF647
[2] = molecular target: T2, HER2 on BT474 breast tumour cells (human, UniProt P04626); experiment: as above
T2 construct: whole, on cells; also called HER2-positive BT474 cells

Binder | binding result [1] | binding result [2]
monospecific 47D5 VHH anti-HER2 pseudo-IgG (47D5 anti-HER2 VHH.C4bp(beta).Fc) (Fc fusion, also called 47D5 pseudo-IgG) RSKVQLVESGGGLVQPGGSLRLSCAASGSIFGFNDMAWYRQAPGKQRELVALISRVGVTSSADSVKGRFTISRVNAKDTVYLQMNSLKPEDTAVYYCYMDQRLDGSTLAYWGQGTQVTVSSGSGAGGGGSSGAGGSAGGGGSSGGGGSAGGGGSIQEAPKPECEKALLAFQESKNLCEAMENFMQQLKESGMTMEELKYSLELKKAELKAKLL[human IgG1 Fc omitted here] | no binding (tested: saturating concentrations) | binds
RTX scFv.C4bp(beta).Fc pseudo-IgG (Fc fusion, also called pseudo-RTX; RTX pseudo-IgG) RSQIVLSQSPAILSASPGEKVTMTCRASSSVSYIHWFQQKPGSSPKPWIYATSNLASGVPVRFSGSGSGTSYSLTISRVEAEDAATYYCQQWTSNPPTFGGGTKLEIKGGSSRSSSSGGGGSGGGGQVQLQQPGAELVKPGASVKMSCKASGYTFTSYNMHWVKQTPGRGLEWIGAIYPGNGDTSYNQKFKGKATLTADKSSSTAYMQLSSLTSEDSAVYYCARSTYYGGDWYFNVWGAGTTVTVSASGAGGGGSSGAGGSAGGGGSSGGGGSAGGGGSIQEAPKPECEKALLAFQESKNLCEAMENFMQQLKESGMTMEELKYSLELKKAELKAKLL[human IgG1 Fc omitted here] | – | no binding (tested: saturating concentrations)
